Experimental data reported in publication PMC5157953.
Numbering of substitutions follows the chain as printed. These are yes or no findings as the source states them, for the method shown. Some entries that bind do so weakly or less than the wild type. Where a sequence is shown, tags or fusion partners need not be part of it. Values belong to the molecule of their own block, whether it stands above or below them.

By UniProt entry, the sequences of proteins in these tests, tags left out. Residues count along the entry.
UniProt Q39057: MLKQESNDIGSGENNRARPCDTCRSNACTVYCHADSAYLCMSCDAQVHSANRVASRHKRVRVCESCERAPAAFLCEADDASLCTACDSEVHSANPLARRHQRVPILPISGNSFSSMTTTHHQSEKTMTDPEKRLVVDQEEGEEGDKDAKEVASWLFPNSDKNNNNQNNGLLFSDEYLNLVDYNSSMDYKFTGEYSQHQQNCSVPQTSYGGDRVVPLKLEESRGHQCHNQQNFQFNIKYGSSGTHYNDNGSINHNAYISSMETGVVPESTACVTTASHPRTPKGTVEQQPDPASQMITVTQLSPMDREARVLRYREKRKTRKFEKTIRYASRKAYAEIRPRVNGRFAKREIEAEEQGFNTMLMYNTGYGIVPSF
UniProt Q9M9X4: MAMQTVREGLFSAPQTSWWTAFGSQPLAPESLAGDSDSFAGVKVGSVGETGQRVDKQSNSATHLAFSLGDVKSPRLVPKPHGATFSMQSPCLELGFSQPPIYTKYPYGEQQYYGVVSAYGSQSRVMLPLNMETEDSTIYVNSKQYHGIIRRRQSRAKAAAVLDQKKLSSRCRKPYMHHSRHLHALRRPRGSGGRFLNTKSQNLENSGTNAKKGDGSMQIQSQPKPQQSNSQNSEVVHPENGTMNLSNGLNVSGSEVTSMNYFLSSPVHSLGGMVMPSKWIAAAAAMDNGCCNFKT
UniProt Q9LVJ7, residues 170-237: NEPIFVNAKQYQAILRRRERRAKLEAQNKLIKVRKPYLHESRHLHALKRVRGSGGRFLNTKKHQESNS

Legend:
[1] = target: T1, NF-YB2^E65R/NF-YC9 dimer in yeast three-hybrid (NF-YB2^E65R fusion with NF-YC9 from a bridge vector) (Arabidopsis thaliana) (UniProt Q9FGJ3+Q8L4B2); assay: two-hybrid; yeast three-hybrid as in a2 with CO in place of NF-YA2; no figure shown; read by yeast growth
T1 sequence 1: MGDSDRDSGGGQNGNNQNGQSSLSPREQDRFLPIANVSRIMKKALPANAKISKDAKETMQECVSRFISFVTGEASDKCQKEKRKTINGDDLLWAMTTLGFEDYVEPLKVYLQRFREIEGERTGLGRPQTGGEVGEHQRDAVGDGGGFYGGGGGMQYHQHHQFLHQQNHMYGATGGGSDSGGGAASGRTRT
T1 sequence 2: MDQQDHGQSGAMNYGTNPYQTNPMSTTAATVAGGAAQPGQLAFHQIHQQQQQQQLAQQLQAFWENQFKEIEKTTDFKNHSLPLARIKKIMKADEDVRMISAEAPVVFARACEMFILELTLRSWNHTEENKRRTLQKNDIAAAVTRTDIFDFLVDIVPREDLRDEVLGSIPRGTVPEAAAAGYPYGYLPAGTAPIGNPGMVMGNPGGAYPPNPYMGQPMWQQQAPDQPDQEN

[2] = target: T2, NF-YB2/NF-YC9 histone-fold domain dimer in yeast three-hybrid (NF-YB2 DBD fusion with NF-YC9 from a bridge vector) (Arabidopsis thaliana) (UniProt Q9FGJ3+Q8L4B2); assay: as above
T2 sequence 1: T1 sequence 1 with R65E
T2 sequence 2: T1 sequence 2

[3] = target: T1, NF-YB2^E65R/NF-YC9 dimer in yeast three-hybrid (NF-YB2^E65R fusion with NF-YC9 from a bridge vector) (Arabidopsis thaliana); assay: two-hybrid; yeast three-hybrid in PJ69-4alpha; NF-YA2 as activation domain fusion, NF-YC9 from the bridge vector pTFT1; medium lacking histidine with 5 mM 3-AT
[4] = target: T2, NF-YB2/NF-YC9 histone-fold domain dimer in yeast three-hybrid (NF-YB2 DBD fusion with NF-YC9 from a bridge vector) (Arabidopsis thaliana); assay: as above
[5] = target: T3, 6His-NF-YB2/NF-YC3 soluble HFD dimer (Arabidopsis thaliana) (UniProt Q9FGJ3+Q9ZVL3); assay: native gel or EMSA; trimer read as NF-Y/DNA complex on Cy5-labelled FT CCAAT probe (20 nM); NF-YB2/NF-YC3 dimers 60 nM, NF-YA at 3, 4.5 or 6 fold molar ratio; 12 mM Tris-HCl pH 8.0, 50 mM KCl, 62.5 mM NaCl, 5 mM MgCl2; 30 min at 30C; 6% polyacrylamide, 0.25X TBE; both purified
T3 sequence 1: T1 sequence 1 with R65E
T3 sequence 2: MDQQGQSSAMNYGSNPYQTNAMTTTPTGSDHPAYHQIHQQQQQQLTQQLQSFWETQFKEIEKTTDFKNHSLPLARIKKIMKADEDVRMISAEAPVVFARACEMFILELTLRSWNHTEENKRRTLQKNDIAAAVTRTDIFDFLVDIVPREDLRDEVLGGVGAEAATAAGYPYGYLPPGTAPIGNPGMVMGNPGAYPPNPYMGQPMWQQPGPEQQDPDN

[6] = target: T4, NUCLEAR FACTOR Y subunit B2 (NF-YB2), yeast two-hybrid fusion (Arabidopsis thaliana) (UniProt Q9FGJ3); assay: two-hybrid; yeast two-hybrid in MaV203, ProQuest system; X-Gal assay and medium lacking histidine with 5 mM 3-AT
T4 sequence: T1 sequence 1 with R65E

[7] = target: T5, NF-YB2^E65R, yeast two-hybrid fusion (Arabidopsis thaliana) (UniProt Q9FGJ3); assay: as above
T5 sequence: T1 sequence 1

- binding [1]: no binding
- binding [2]: no binding
Molecule: CONSTANS (CO), yeast three-hybrid fusion (from UniProt Q39057 1-373)

- binding [3]: no binding
- binding [4]: binds
Molecule: NUCLEAR FACTOR Y subunit A2 (NF-YA2), activation domain fusion for yeast three-hybrid (from UniProt Q9M9X4 1-295)

- binding [5]: binds
Molecule: NF-YA6 (aa 170-237) with C-terminal 6His tag (from UniProt Q9LVJ7 170-237) (domain or fragment)

- binding [6]: binds
- binding [7]: binds
B1: NUCLEAR FACTOR Y subunit C3 (NF-YC3), yeast two-hybrid fusion (protein, UniProt Q9ZVL3 1-217)
chain: T3 sequence 2

- binding [6]: binds
- binding [7]: binds
B2: NUCLEAR FACTOR Y subunit C4 (NF-YC4), yeast two-hybrid fusion (protein, UniProt Q9FMV5 1-250)
chain: MDNNNNNNNQQPPPTSVYPPGSAVTTVIPPPPSGSASIVTGGGATYHHLLQQQQQQLQMFWTYQRQEIEQVNDFKNHQLPLARIKKIMKADEDVRMISAEAPILFAKACELFILELTIRSWLHAEENKRRTLQKNDIAAAITRTDIFDFLVDIVPREEIKEEEDAASALGGGGMVAPAASGVPYYYPPMGQPAVPGGMMIGRPAMDPSGVYAQPPSQAWQSVWQNSAGGGDDVSYGSGGSSGHGNLDSQG

- binding [6]: binds
- binding [7]: binds
B3: NUCLEAR FACTOR Y subunit C9 (NF-YC9), yeast two-hybrid fusion (protein, UniProt Q8L4B2 1-231)
chain: T1 sequence 2
